Variants at the background level are over-represented here. A value given as a limit tells only on which side of the number the result lay.

Results on 167 variants are retold here after the RNAGym collection of RNA variant scans (doi:10.1101/gad.245936.114).

B1: tRNA (parent)
chain: CUCUCGGUAGCCAAGUUGGUUUAAGGCGCAAGACUUUAAUUUAUCACUACGAAAUCUUGAGAUCGGGCGUUCGACUCGCCCCCGGGAGAUUUUUUCCUCGAGCAA

Variants of B1 are the subject of this series. In words: nonsense suppression (GFP-seq) (ratio to wild type); higher = more function; SUP4oc tRNA, yeast GFP reporter sort-seq. In a few lines: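 Raffinose/galactose medium with 80 mg/L adenine was used to grow yeast carrying genome-integrated tRNA variants (~3% random-mutation library), RFP, and a galactose-driven GFP ochre reporter. Cells went into GFP/RFP bins, which were Illumina-sequenced, and variants with ≥100 reads and ≥30 cells were scored. Nonsense suppression (GFPSEQ) is the per-bin median GFP/RFP weighted by estimated cell share and expressed relative to the unmutated parent tRNA.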
As for A14U U35G C83U, the nonsense suppression was at most 0.026.

Take G7C A62U: the nonsense suppression was at most 0.026.

Consider A14G A33G G78C, for which the nonsense suppression is at most 0.026.

Regarding C3U G59A, the nonsense suppression was at most 0.026.

With A9U U20G, the nonsense suppression came to 0.12.

Consider C11A U17C G28A U76G G86A, for which the nonsense suppression was at most 0.026.

On to U58G G88C, for which the nonsense suppression was at most 0.026.

Take A23U G59A A74U: the nonsense suppression is at most 0.026.

Turning to C11A A13C G61A, the nonsense suppression was at most 0.026.

As to A9G A54C U58A G84A, the nonsense suppression is at most 0.026.

Regarding C1G C29U G66C G85C, the nonsense suppression was at most 0.026.

On to G78A C83A, for which the nonsense suppression is at most 0.026.

For the variant G10U C82A, the nonsense suppression is at most 0.026.

As for A74G U76A, the nonsense suppression was at most 0.026.

Consider A9G A23C G25C, for which the nonsense suppression is at most 0.026.

Take A31G C79U: the nonsense suppression was 0.77.

Regarding U76G C79A, the nonsense suppression was at most 0.026.

As to C5A C34G G65A C80G, the nonsense suppression is at most 0.026.

With A23G A60U, the nonsense suppression was at most 0.026.

Turning to C11U A24U C34U, the nonsense suppression was at most 0.026.

For C1U G78C G84C, the nonsense suppression is at most 0.026.

In the case of G7A U70A, the nonsense suppression was at most 0.026.

With U22G U57C A74U, the nonsense suppression is at most 0.026.

Take U63C C64U: the nonsense suppression was at most 0.026.

With A23G G59C, the nonsense suppression is at most 0.026.

As to A14G G32A, the nonsense suppression was at most 0.026.

On to U21C G25U, for which the nonsense suppression was at most 0.026.

With C34G G66A, the nonsense suppression is at most 0.026.

As for C5U U22A U58A G65C G67C G69C, the nonsense suppression is at most 0.026.

With C1U A33C U57G, the nonsense suppression is at most 0.026.

Regarding A30U C56A, the nonsense suppression is at most 0.026.

For G18C G26U C72U, the nonsense suppression is at most 0.026.

Take C5A U17C G84A: the nonsense suppression is at most 0.026.

U63A C72A G73C: the nonsense suppression was at most 0.026.

On to A13U U16G C82U, for which the nonsense suppression stood at 0.377.

Regarding C12A A60G, the nonsense suppression is at most 0.026.

As for A9U A24U G85A, the nonsense suppression is at most 0.026.

Turning to C11U A30C G65C G85C, the nonsense suppression is at most 0.026.

As for U17A C27U A31U G59A G67A U76G, the nonsense suppression is at most 0.026.

A54C U76C: the nonsense suppression stood at 0.232.

With A23C C80G, the nonsense suppression was at most 0.026.

As to U55A G86U, the nonsense suppression was at most 0.026.

Consider U4G U16G G32C G65C, for which the nonsense suppression is at most 0.026.

Turning to C83A G84U, the nonsense suppression was at most 0.026.

On to U22G G69C, for which the nonsense suppression was at most 0.026.

With G32U C64A C81G, the nonsense suppression was at most 0.026.

For C56A U58G G59A U63G, the nonsense suppression is at most 0.026.

For the variant G15U C56G G69C, the nonsense suppression is at most 0.026.

In the case of C3A U76G, the nonsense suppression was at most 0.026.

Regarding A13G U20G A62G C81U, the nonsense suppression is at most 0.026.

As for G6U G10U A54U U57C G88A, the nonsense suppression was at most 0.026.

Regarding G6U U8A C12G U17C C29U, the nonsense suppression is at most 0.026.

In the case of U8G A9U C11A G26U, the nonsense suppression was at most 0.026.

With C5A U76C G86C, the nonsense suppression is at most 0.026.

As to U20C C80G, the nonsense suppression was at most 0.026.

With A13G A33G U57A A89G, the nonsense suppression is at most 0.026.

Consider U58G G61A U63C G78A, for which the nonsense suppression was at most 0.026.

Consider U2G C12A C29U C64G, for which the nonsense suppression was at most 0.026.

As to A31G G85C, the nonsense suppression was at most 0.026.

Consider C1U G65C U70A C79U G86C, for which the nonsense suppression was at most 0.026.

As to U57G A60G G69A C72G, the nonsense suppression is at most 0.026.

Regarding U55G G78C, the nonsense suppression was at most 0.026.

As to G18A A31C, the nonsense suppression was at most 0.026.

With G6C A23U U35G, the nonsense suppression was at most 0.026.

As to G10C G28A A74C, the nonsense suppression was at most 0.026.

In the case of A13C G66C, the nonsense suppression is at most 0.026.

G26A A89C: the nonsense suppression is at most 0.026.

As for C29U A31G G66A G73A, the nonsense suppression was at most 0.026.

For the variant G19U G28A G86A, the nonsense suppression was at most 0.026.

With C5G A14G C80U, the nonsense suppression was at most 0.026.

Consider C5U A14C C83G, for which the nonsense suppression was at most 0.026.

As to G59A C68A, the nonsense suppression is at most 0.026.

Consider A23U A30U A33U G59A G73A, for which the nonsense suppression is at most 0.026.

In the case of C34U C72U, the nonsense suppression was at most 0.026.

Consider U4G C11U, for which the nonsense suppression is at most 0.026.

Take C29A A33G A87C: the nonsense suppression is at most 0.026.

Turning to A24G C75A, the nonsense suppression came to 0.24.

For the variant U21C U57G, the nonsense suppression is at most 0.026.

A9G G19U G65U G67U G78A: the nonsense suppression was at most 0.026.

As to G6A G59A, the nonsense suppression is at most 0.026.

For C5A G88U, the nonsense suppression is at most 0.026.

On to A14U A23C, for which the nonsense suppression was at most 0.026.

With A14U G19U, the nonsense suppression was at most 0.026.

Take C1G G66U G86C: the nonsense suppression was at most 0.026.

Regarding G59C C64G G65U, the nonsense suppression was at most 0.026.

Regarding C1A C82A, the nonsense suppression was at most 0.026.

Consider U4C A74U, for which the nonsense suppression is at most 0.026.

In the case of A13C A31C G85A, the nonsense suppression is at most 0.026.

Regarding U16G A23G G69U, the nonsense suppression was at most 0.026.

Consider C3G G10U, for which the nonsense suppression was at most 0.026.

In the case of A24G A33C C56U G84A, the nonsense suppression was at most 0.026.

Regarding U16A G18U A24C U58G, the nonsense suppression was at most 0.026.

As for C5U G15C A31G, the nonsense suppression is at most 0.026.

As for G19A U71G, the nonsense suppression is at most 0.026.

With U16G G19U, the nonsense suppression is at most 0.026.

For G15A C29A, the nonsense suppression is at most 0.026.

For the variant U63C G73U, the nonsense suppression was at most 0.026.

On to U2G U57A A62U, for which the nonsense suppression is at most 0.026.

Regarding C82G G88A, the nonsense suppression is at most 0.026.

In the case of U8G C12U U63A G69U, the nonsense suppression is at most 0.026.

For G19C U71G C75G U76G C80U, the nonsense suppression was at most 0.026.

With G85C A87G, the nonsense suppression was at most 0.026.

For the variant G6C G69A, the nonsense suppression was at most 0.026.

With G6C G69U, the nonsense suppression is at most 0.026.

C29G C81U: the nonsense suppression was at most 0.026.

As for A30G U57A, the nonsense suppression was at most 0.026.

Turning to C1A U35A G65C G69C C81U C82G, the nonsense suppression was at most 0.026.

With C11G C56G G84U, the nonsense suppression is at most 0.026.

A24U G65C C80U: the nonsense suppression is at most 0.026.

As to C1A A23U A33G U55A G65C, the nonsense suppression is at most 0.026.

In the case of U55A G59C, the nonsense suppression was at most 0.026.

For the variant C1A C5U U70A U76G, the nonsense suppression is at most 0.026.

In the case of U2G U4G C68A, the nonsense suppression was at most 0.026.

Turning to U16A U55G G69C, the nonsense suppression is at most 0.026.

For the variant C1U C80G, the nonsense suppression was at most 0.026.

With C34A C77G, the nonsense suppression is at most 0.026.

As to C12G A23C U57A G66C, the nonsense suppression is at most 0.026.

As for U55A U58G C68G, the nonsense suppression is at most 0.026.

Regarding G7A C29A, the nonsense suppression was at most 0.026.

On to U17G U35A G67A U76A, for which the nonsense suppression is at most 0.026.

On to C1A C79U, for which the nonsense suppression was at most 0.026.

Take A31G A33G C56U: the nonsense suppression was at most 0.026.

Consider U17G U55C, for which the nonsense suppression worked out at 0.0769.

As for A9C A30G C34A, the nonsense suppression was at most 0.026.

For G7U C12U G85U, the nonsense suppression is at most 0.026.

For C12U U17A A62C G66C C80A, the nonsense suppression is at most 0.026.

For the variant G69C, the nonsense suppression is at most 0.026.

As for U17G G66U G73U, the nonsense suppression was at most 0.026.

Turning to A9G U17A A33G U70A C77G, the nonsense suppression was at most 0.026.

A31G U55A G65A: the nonsense suppression was at most 0.026.

G32A G88C: the nonsense suppression is at most 0.026.

Take U22G A62C: the nonsense suppression was at most 0.026.

Regarding C27G U57C G59C C64A, the nonsense suppression is at most 0.026.

Regarding U22G G66C C68A G86A, the nonsense suppression is at most 0.026.

As for U8G G78U, the nonsense suppression was at most 0.026.

C56U U58G G59A: the nonsense suppression is at most 0.026.

With G10C C12U, the nonsense suppression was at most 0.026.

Regarding G6A C11A A23G A62U, the nonsense suppression is at most 0.026.

For the variant G10U C12A, the nonsense suppression was at most 0.026.

As to A33G U70G, the nonsense suppression was at most 0.026.

On to G25A A30U C34A U58A, for which the nonsense suppression is at most 0.026.

In the case of G7A U63C U76C, the nonsense suppression is at most 0.026.

With G19C G88C, the nonsense suppression was at most 0.026.

U17C G28A G61C: the nonsense suppression was 0.716.

With C29G G65C, the nonsense suppression is at most 0.026.

As for C5U U63G C81G, the nonsense suppression is at most 0.026.

In the case of A14G G88U, the nonsense suppression was at most 0.026.

As to G69C U76A G78C, the nonsense suppression is at most 0.026.

Consider C34A U63A G65U, for which the nonsense suppression was at most 0.026.

In the case of G7A G26C G32U, the nonsense suppression is at most 0.026.

For the variant C29U A60U, the nonsense suppression turned out to be 1.18.

Turning to G10U U20C, the nonsense suppression was at most 0.026.

A30G U70C G78A: the nonsense suppression was at most 0.026.

Turning to C27U G67C G85U, the nonsense suppression was at most 0.026.

Consider C12G A23U A62U G66C, for which the nonsense suppression was at most 0.026.

Turning to C1U C77U, the nonsense suppression was at most 0.026.

Consider C12U U55C G67C C81A, for which the nonsense suppression was at most 0.026.

On to U22A A30G, for which the nonsense suppression stood at 0.677.

As to C34A C56G C81A, the nonsense suppression is at most 0.026.

With C29A C64U G84U, the nonsense suppression was at most 0.026.

As for G59A C77U, the nonsense suppression was at most 0.026.

Take C29U C72U: the nonsense suppression is 0.101.

With G25U C27G G28C U35G U70G, the nonsense suppression was at most 0.026.

As to A24U U57C G88C, the nonsense suppression is at most 0.026.

U20A G88C: the nonsense suppression was at most 0.026.

On to A9U U20C G65A, for which the nonsense suppression was at most 0.026.

C3A U4C A30C C34U: the nonsense suppression is at most 0.026.
